Data published in PubChem BioAssay AID588855 (National Center for Advancing Translational Sciences (NCATS), 2011).
The campaign covered roughly 410,000 compounds. About 5,000 (1.2%) were called active. The inconclusive results got no clear call from the source; some entries with a clear call stand among them for comparison. Calls follow the shape of the dose curve; as a rule, active = well fitted inhibition curve with a large enough effect; inconclusive = small, poorly fitted or top-dose-only effect; inactive = no such curve, though single readings can be large or run the other way. Potencies beside an inconclusive call are fits to weak or partial responses and may not hold up.

Test: qHTS for Inhibitors of TGF-b; also: nearly all actives have a fitted effect of over 65% in size
Conditions: HepG2 CAGA-GFP TGF-b/SMAD3 reporter, GFP fluorescence, 18 h, TGF-beta stimulated, 500 pg/mL final; series mostly up to 46.1 µM; activity, negative = inhibition: at the top concentration
Summary of the method: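 HEPG2 CAGA-GFP, 1000 cells/well; 2 h settle, 37 C; cpd via pin tool; TGF-b 500 pg/mL final; 18 h, 37 C; GFP imaging ex488/em500-530; %Activity normalised to -TGF-b and +DMSO controls; CRC fit, curve class.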
% is scaled to controls: 0 for no effect and ±100 for the full control effect; potency is read from the fitted curve at half-maximal effect; tags tell the direction and shape of the fitted curve.

SMILES	Potency	activity, negative = inhibition
Cc1ccc(C)c(NC(=O)c2nc(-c3ccccc3)n(-c3ccccc3)n2)c1	inconclusive: 15.8 µM [inhibitor, single point]	–
COc1ccc(CN2CCCC(C(=O)c3ccc(Cl)cc3)C2)cc1Cn1cccn1 (stereo not drawn)	inconclusive: 17.8 µM [inhibitor, single point]	–
CN1CC(c2ccccn2)C2(SC(=S)N(Cc3ccccc3)C2=O)C12C(=O)Nc1ccccc12 (stereo not drawn)	inconclusive: 35.5 µM [inhibitor, single point]	–
COc1cccc(NC(=O)N(Cc2cn(C)c3ccccc23)C2CCCCCC2)c1	inconclusive: 20 µM [inhibitor, partial curve, poor fit]	–
COc1ccccc1/C=C1\NC(=S)N(CC2CCCO2)C1=O (stereo not drawn)	–	inactive: 1.66%
O=[N+]([O-])c1ccc(O)c(/C=N\N=C2c3ccccc3-c3ccccc32)c1	active: 2.82 µM	–
CCn1c(CNC(=O)c2ccccc2Br)nnc1SCC(=O)Nc1nncs1	–	inactive: 0%
COc1cc(C(=O)OCCc2cc3ccccc3c(=O)o2)cc(OC)c1OC	–	inactive: 3.14%
OC(c1ccc(Cl)cc1)c1ncc(-c2cccc(C(F)(F)F)c2)[nH]1 (stereo not drawn)	inconclusive: 20 µM [inhibitor, single point]	–
N=c1ccn(Cc2ccc(Cl)c(Cl)c2)cc1	–	inactive: -22.8%
O=C(OCC(=O)N1CCN(C(=O)c2ccco2)CC1)c1ccc(Cl)c(Cl)c1	inconclusive: 15.8 µM [inhibitor, partial curve, poor fit]	–
S=C(NCc1ccco1)N1CCN(c2cccc(Cl)c2)CC1	inconclusive: 25.1 µM [inhibitor, single point]	–
CN1CCN(c2nc(Nc3cccc(C(F)(F)F)c3)nc(N3CCOCC3)n2)CC1	inconclusive: 35.5 µM [inhibitor, single point]	–
Cc1cc(C)cc(NC(=O)C(c2ccccc2)N2CCN(CC(=O)NC3CC3)CC2)c1 (stereo not drawn)	inconclusive: 35.5 µM [inhibitor, single point]	–
CCOC(=O)c1sc2ccc(S(=O)(=O)N3CCOCC3)cc2c1N	–	inactive: 18%
C/C(=N\NC(=S)NCc1ccccc1)c1ccc(C(C)(C)C)cc1	inconclusive: 35.5 µM [inhibitor, single point]	–
COc1ccc(-c2nc3ccccc3n3c(-c4ccc(OC)cc4)c4c(=O)n(C)c(=O)n(C)c4c23)cc1	–	inactive: -11%
Cc1c(Cl)cccc1-n1nc(C)c2c(C)cc(=O)n(CC(=O)N3CCCc4ccccc43)c21	–	inactive: -17.1%
Cc1cc(SCC(=O)c2cccs2)nc2c(C)cccc12	–	inactive: -2.54%
CCOC(=O)c1ccc(-c2ccc(/C=N/NC(=O)CN(c3ccccc3Cl)S(C)(=O)=O)o2)cc1	–	inactive: 5.34%
Cc1nc(Nc2nc(-c3ccccc3)cc(=O)[nH]2)nc2ccccc12	inconclusive: 10 µM [inhibitor, partial curve]	–
COC(=O)c1ccc2nc(C3CCCCC3)c(Cc3ccc(C)cc3)n2c1	inconclusive: 12.6 µM [inhibitor, single point]	–
Cc1cc(S(=O)(=O)Nc2ccc(C(=O)NCC(c3ccco3)N(C)C)cc2)ccc1F (stereo not drawn)	inconclusive: 14.1 µM [inhibitor, partial curve]	–

SMILES	Potency	activity, negative = inhibition
CCOC(=O)N1CCN(CC(O)c2c[nH]c3ccccc23)CC1 (stereo not drawn)	–	inactive: -11.4%
CC(C(=O)O)N1C(=O)C2C3CC(C2C1=O)C1C(c2ccccc2)c2sc(=O)[nH]c2SC31 (stereo not drawn)	inconclusive: 0.224 µM [inhibitor, full curve, poor fit]	–
COc1cc(/C=C2\N=C(c3ccccc3)NNC2=O)cc(OC)c1OC	inconclusive: 10 µM [inhibitor, partial curve]	–
COc1ccccc1-n1c(SC)nc2c(sc(=S)n2-c2ccccc2)c1=O	–	inactive: 0%
O=C(Cn1c(=O)c(=O)n(Cc2ccccc2)c2ccc(Cl)cc21)Nc1ccc(F)cc1F	–	inactive: -0.128%
NC1=NC(c2ccc(Cl)cc2)C(C(=O)c2ccccc2)N1 (stereo not drawn)	inconclusive: 31.6 µM [inhibitor, single point]	–
Cc1oc(-c2ccc(Cl)cc2)nc1Cn1c(=O)cc(-c2ccccc2)c2c(C)nn(C)c21	–	inactive: -24.1%
CCc1nn(CC(=O)NCc2cccc(OC)c2)c(=O)c2cc3cc(F)ccc3n12	–	inactive: -9.05%
CCOC(=O)c1ccc(NC(=S)NNC(=O)C2(C)CC2(Cl)Cl)cc1 (stereo not drawn)	–	inactive: -5.58%
CCOc1ccc(CCN2C(=S)N([C@@H](CC(C)C)CN3CCC[C@@H]3CN3C(=S)NC[C@@H]3Cc3ccccc3)C[C@@H]2Cc2ccc(O)cc2)cc1	active: 7.94 µM	–
Cc1ccc(OCCCC(=O)Nc2ccc(Cl)c(S(=O)(=O)N3CCOCC3)c2)cc1	active: 8.91 µM	–
Cc1ccc(-c2nc3c(cnn3-c3ccccc3)c(=O)n2-c2ccc(Cl)cc2)cc1	inconclusive: 14.1 µM [inhibitor, single point]	–
Cc1ccc(NC(=O)CSCC(=O)Nc2cc(S(=O)(=O)N3CCOCC3)ccc2OC(C)C)cc1	–	inactive: -6.49%
O=[N+]([O-])c1ccc(-c2cnc(SC(c3ccccc3)c3ccccc3)[nH]2)cc1	inconclusive: 20 µM [inhibitor, single point]	–
CC[C@H](C)[C@H]1CNC(=S)N1CC1CCN(CCCC2CCCC2)CC1	–	inactive: -2.24%
COc1ccccc1NC(=O)CN1CCC(n2nnc3cc(F)ccc32)CC1	inconclusive: 14.1 µM [inhibitor, single point]	–
CSC(SC)=C(C#N)C(=O)c1ccccc1	inconclusive: 22.4 µM [inhibitor, single point]	–
COc1cccc(/C=N/NC(=S)NCCc2ccccc2)c1OC	–	inactive: 0%
CC(=O)Nc1ccc(OCC(=O)N2CCC(Cc3ccccc3)CC2)cc1	–	inactive: -0.0117%
O=C(Nc1ccc(F)c(F)c1)C1CCCCC1	–	inactive: 8.87%
CCOC(=O)c1c(C)[nH]c(C)c1S(=O)(=O)N(C)CC(=O)N1CCN(c2ccccc2OC)CC1	inconclusive: 35.5 µM [inhibitor, single point]	–
Cc1ccc(CNC(=O)Cn2ncn3cccc3c2=O)cc1	–	inactive: 9.15%
CCCOc1ccc(C(=O)C(CN2CCOCC2)c2ccccc2)cc1 (stereo not drawn)	active: 15.8 µM	–

SMILES	Potency	activity, negative = inhibition
CC12CCC(O)CC1=CCC1C2CCC2(C)c3[nH]ncc3CC12 (stereo not drawn)	inconclusive: 0.708 µM [inhibitor, partial curve, poor fit]	–
CCN(CC)CCCNC(=O)Cn1c(-c2cccs2)cc2cc(Cl)ccc21	inconclusive: 35.5 µM [inhibitor, single point]	–
COc1ccc(Nc2c([N+](=O)[O-])ccc3c2=NC2(CCCCC2)N=3)cc1	inconclusive: 2.51 µM [inhibitor, partial curve, poor fit]	–
O=C(CCCCn1c(=O)[nH]c2ccsc2c1=O)N1CCN(c2cccc(Cl)c2)CC1	inconclusive: 11.2 µM [inhibitor, single point]	–
COc1cc2sc3ccc(-c4ccc(N(C)C)nc4)cc3c(=O)c2cc1OC	inconclusive: 12.6 µM [inhibitor, single point]	–
CCC1C(c2ccccc2)N(C)C(c2ccccc2)CC1(O)c1ccccc1 (stereo not drawn)	inconclusive: 12.6 µM [inhibitor, partial curve, poor fit]	–
CCOC(=O)c1c(C)oc2c(Cl)cc(NS(=O)(=O)c3ccc(Cl)c(C)c3)cc12	inconclusive: 17.8 µM [inhibitor, partial curve, poor fit]	–
N#C/C(=C/c1ccc(CNC(=O)C(=O)Nc2cc(Cl)cc(Cl)c2)o1)C(=O)NCc1cccnc1	–	inactive: 0.213%
NS(=O)(=O)c1ccc(CCNc2nc3c(-c4cccc(F)c4)nnn3c3ccc(Cl)cc23)cc1	inconclusive: 3.55 µM [inhibitor, full curve, poor fit]	–
O=C(Nc1ccccc1)N1CCc2c([nH]c3ccccc23)C1C(F)(F)F (stereo not drawn)	inconclusive: 20 µM [inhibitor, single point]	–
Cc1cc(C)c2nc(NNC(=O)c3cc(-c4cccs4)nc4ccccc34)sc2c1	inconclusive: 6.31 µM [inhibitor, partial curve, poor fit]	–
CCN1CCN(C(=O)c2ccc3c(c2)N(Cc2cc(C)ccc2C)C(=O)c2ccccc2S3=O)CC1 (stereo not drawn)	inconclusive: 35.5 µM [inhibitor, single point]	–
CN(c1ccc(OC(=O)c2ccc(-n3cncn3)c([N+](=O)[O-])c2)cc1)S(=O)(=O)c1ccccc1	–	inactive: -2.85%
COc1ccc(NC(=O)Cn2cc(C(=O)C3CC3)c3ccccc32)cc1	inconclusive: 28.2 µM [inhibitor, single point]	–
O=C(CSc1nc(-c2ccco2)cc(C(F)(F)F)n1)NC1CCCC1	–	inactive: -0.0662%
Cc1cc(/C=C(\C#N)C(=O)N2CCOCC2)c(C)n1C1CCCC1	inconclusive: 22.4 µM [inhibitor, single point]	–
CCc1ccc(NC(=O)c2nc(SCc3ccccc3F)ncc2Cl)cc1	–	inactive: 21.4%
COc1ccc(C2c3c(ncn(CCCO)c3=N)Oc3ccc4ccccc4c32)cc1OC (stereo not drawn)	inconclusive: 17.8 µM [inhibitor, single point]	–
CC1CC(C)CN(c2ccc(C(=O)OCC(=O)NC3CCCc4ccccc43)cc2[N+](=O)[O-])C1 (stereo not drawn)	inconclusive: 1.12 µM [inhibitor, partial curve]	–
CC(C)(C)N(NC(=O)Nc1ccc(Cl)c(Cl)c1)C(=O)c1ccccc1	inconclusive: 17.8 µM [inhibitor, partial curve, poor fit]	–
C=CCSc1nc2c(c(=O)n(C)c(=O)n2C)n1CC	inconclusive: 3.98 µM [inhibitor, single point]	–
Cc1nc(SC2CC(=O)N(c3cc(Cl)cc(Cl)c3)C2=O)nc2c1CCCC2 (stereo not drawn)	inconclusive: 35.5 µM [inhibitor, single point]	–
